Assay results published in the supplement of paper PMC11417369.
± gives the standard deviation of the averaged measurements. The list shows a part of the results.

Test system: PfAP2-G AP2 domain (GST-tagged)
Experiment: gcPBM binding intensity (ln(normalized median fluorescence intensity)); higher = stronger DNA binding
Summary of the method: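 Probes on an Agilent 4 × 180k array were primer-extended, double-stranded and 36 bp long, taken from intergenic genomic regions, with negative controls added. GST-tagged P. falciparum DNA-binding domains from E. coli, about 25 μg on average, were applied to the array for 1 h in 1× PBS containing 1% milk, 0.2 mg/ml BSA, 0.5% salmon testes DNA and 0.03% Triton X-100. Binding intensity, obtained after Alexa488 anti-GST antibody detection and a 488 nm scan, is the highest Masliner-normalised natural-log median intensity across replicate spots of either probe orientation.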

Sequence	gcPBM binding intensity (ln)
ATATCATGTTAAGATTGTACATATATATAATATATA [XGTACX_site7626]	10.9 ± 0.57
AATAAATTGGTATGTTGTACAAAGTAACCATCGATT [XGTACX_site2823]	11.1 ± 0.59
ATTGTAAGTAGACACACACACATATAGATGTATATA [CACACA_site6463]	10.065 ± 0.007
TATTTTTTTAATAACTGTACTTTTTTGTCAAATGGA [XGTACX_site4179]	11.7 ± 1.2
TTTATTTATTATTATGTACACACTATATTAAAACAT [CACACA_site700]	11.4 ± 0.87
TTATAATAAATATTCATATGTTCAAATATATATATA [CACACA_negctrl_site624]	9.69 ± 0.042
AAATATATTTCTTTTTTTCTTATTATTAATTTGCTT [CACACA_negctrl_site1483]	9.5 ± 0.28
TATAGATTTATATACACATGCATTTTGGTAAAGAAA [TGCATGCA_site953]	10.1 ± 0.19
GGCGTATGTGTATATACACACCCACGTATATATATA [CACACA_site9046]	10.3 ± 0.22
TGTTGTTTTATGTTGTATTGTAATATATTATATTAT [XGTACX_negctrl_site46]	10.3 ± 0.22
ATATATAACGGGCACACACACATTTACGTATGAATA [CACACA_site1833]	10.7 ± 0.43
TTAAAATTATAATACGTACACACCTTATCTTTTTGG [CACACA_site278]	11.5 ± 0.86
TATAAAATGTAATCTGAACACACATATTTTTTTAAT [CACACA_site8521]	9.85 ± 0.042
ATCATATATTATTTATGTACTTATTTATAATAATAT [XGTACX_site8257]	11.4 ± 0.91
TTAGGATTGAAGAGTTGTACATACCTCTTATTTGTT [XGTACX_site1376]	11 ± 0.64
CGTATTTTTGGACATGCATGTACAAATAATCTTATG [TGCATGCA_site973]	11.1 ± 0.6
AAATTTGGCAAACACACACACACACCCACAGAGACA [CACACA_site4490]	10.5 ± 0.54
AAACGTGTGTATAATAGTACATAATTATAACGTAAT [XGTACX_site421]	11 ± 0.71
ATATATGGAGCTTATACACACTTTTATATTTTAACA [CACACA_site7757]	10.06 ± 0.071
TTGGGCATAATGTCATGTACACAAATAATTCTTTAT [XGTACX_site861]	11.5 ± 1
TAAGTTTTGTTCTTTTGTACATATAAGTATAGATCG [XGTACX_site4735]	11 ± 0.61
AAAAAAATAATGTACACACACATATAGGTTTATATA [CACACA_site192]	11.3 ± 0.86

Sequence	gcPBM binding intensity (ln)
AATGTTTTTGTGAGATGTATAAATTTTATTTTATTT [XGTACX_negctrl_site413]	9.82 ± 0.23
TATAGTTTCATTCTTTGTACATATATATTATTATTA [XGTACX_site8527]	10.9 ± 0.49
TATAATGATGATGATAGTACGTATGAGTAAGAAAAA [XGTACX_site31]	11.1 ± 0.42
ATAAAAATATTTATTACACACATAAGCAAAAAAAAA [CACACA_site3484]	10.09 ± 0.035
TATTTTTATTTTTAAACCATATATATATATATATAT [CACACA_negctrl_site1560]	10.1 ± 0.42
AATGTGCAAACAAACTGTACTTTTTTTTTTTTTTTT [XGTACX_site928]	11.6 ± 0.93
AGATTTATTCATTCATGTACTTATTTATTTTATTTT [XGTACX_site6702]	11.2 ± 0.69
TATAAATAAAAGTGTACACACATTAAAATCAAACGT [CACACA_site5316]	11.7 ± 0.89
AATAATAATGCTTTAACTTTGTTGTTATTTAGAATA [CACACA_negctrl_site1144]	9.525 ± 0.049
CATACATATATACATACACACACATATAACCAATGT [CACACA_site8679]	10.2 ± 0.11
TTTGTATTACGTTTGTGTACATATACAATGTGTTTT [XGTACX_site7708]	11.3 ± 0.76
TCCATGCATTGACACACACACAAAAAAAAATTCTTT [CACACA_site7847]	10.2 ± 0.24
TTTATTTATTTATGGACACACATACAAATCTTCCAG [CACACA_site4676]	11 ± 0.59
TATATAATTATTTTTTGTACTCATAATAATATGAAA [XGTACX_site289]	11.4 ± 1
AATAATAATAAAAAGGTGCTGAAATATTTTTATTAT [GTGCAC_site9763]	9.935 ± 0.035
GCTTAATACAGAATAACACACAAAATAAATAAATAA [CACACA_site4041]	10 ± 0.12
TTTTTTTTTTTTTTTGCACACTTAAATTTGGTGGCT [CACACA_site5319]	9.89 ± 0.4
GACATATATACCAAACGTACATATGTGCAAGCATAA [XGTACX_site3089]	11.1 ± 0.8
TTGGCTATAGCCAATTGTACTTTTTCTCTTTGGCTT [XGTACX_site1119]	11.4 ± 1
TCTTGATTAACTTAAAAAAAAAAAAAAAAAAAAAAA [CACACA_negctrl_site458]	9.48 ± 0.35
CATATAATAAATAATTGTACTTGATATAATATTATG [XGTACX_site3562]	11 ± 0.55
TATATTTGTGCGTGTACACATTTGAAAAAATATATA [CACACA_site5079]	11.6 ± 0.88

Sequence	gcPBM binding intensity (ln)
AAAAAAAAAAAAAATATATATATATATATATATATA [CACACA_negctrl_site540]	10.1 ± 1
TTTTTTTTTTTTTTTTGTACATAAATTTTTATTAGA [XGTACX_site6409]	10.9 ± 0.99
ATATGTACAAAATAAGCACACACAAAAAAAAAAAAA [CACACA_site8984]	10.8 ± 0.75
ATTATATAAACCAAATGTACAAAAAGGTCGTAGTGG [XGTACX_site1298]	11.16 ± 0.11
CAACATTGTTCCTATTGTACATGAACTGTTCATACG [XGTACX_site4070]	10.9 ± 0.52
TATGAGAAAAAAAGTACATGCACAAAATGTATATGT [TGCATGCA_site789]	11.5 ± 1.1
AGACACGTATACGATGCACACGTATGCTTTATATAT [CACACA_site9363]	10.18 ± 0.049
ATTATTAAGGTTTATTCAAAAAAGACGTTTTTAAAT [CACACA_negctrl_site1059]	9.795 ± 0.078
TACCTAATATGTTATACACACATTATGAGTACATAT [CACACA_site2466]	11.4 ± 1.1
GAATAATATATATGTTCACACATGGTCTTTATTATA [CACACA_site5457]	10.3 ± 0.28
GTTATATAAACATATGCATGTGAAGTGTTTATTAAT [TGCATGCA_site183]	9.8 ± 0.2
TTTTTTTTTCCTTTTTTTTAAATATTAAAAATGGGA [TGCATGCA_negctrl_site494]	9.91 ± 0.22
TATATATATATAATTGCACACATCAAGTTTGATGTT [CACACA_site1288]	9.95 ± 0.27
GTTGTATACAATAATGTGCACATATTAATTTGAACT	10.5 ± 0.3
AAATGTACAGGACGCACACACATATTTATATTTATA [CACACA_site7689]	11.1 ± 0.91
TCATTGAAAAAAATCTGTACTGACTATATAGTTGCA [XGTACX_site1566]	10.9 ± 0.58
CTTATTTACTATTTTTCACACATTACAGATAAACAA [CACACA_site6095]	10.06 ± 0.064
TAAGTTTTGTTTTTTTGTACTCATTCATACTATCAT [XGTACX_site3638]	11.3 ± 0.68
TAAATATATATATATAGTACAATATAATTATGATAT [XGTACX_site258]	10.9 ± 0.66
AATATAATATTATATAGTACATATTTCTTTTATTTT [XGTACX_site22]	10.8 ± 0.67
TTTTCTTAATATTTCGTTTTACATAAACCTTTTAAA [CACACA_negctrl_site660]	9.97 ± 0.12
TATATATATATAAGTAGTACAATAATATATTATTTT [XGTACX_site6450]	11.5 ± 1

Sequence	gcPBM binding intensity (ln)
TTTTACATCATATATAGTACATATATTATACATATA [XGTACX_site8590]	10.9 ± 0.62
AAAATAAATAAAAAAAGTACATATATAATTTATAAA [XGTACX_site2411]	11.5 ± 0.88
ATATATTTTCATTTTACACACAAATAAAGATAATTT [CACACA_site2996]	10.2 ± 0.45
GAACACTAATAATGTTGTACACGTAATTATATATTT [XGTACX_site777]	11.5 ± 0.92
AAACACACACACAAATGTACATATATATATATATTT [XGTACX_site5090]	10.9 ± 0.68
TCTTGATACAAACATTTAAATAAATAAATAAAAAAA [GTGCAC_negctrl_site41]	9.82 ± 0.11
AAAATACACGCATACACACACACACCGACACATATA [CACACA_site4523]	10.3 ± 0.27
TGTTGTGATATATTAAAATCGTCCCTTATAATTTTA [GTGCAC_negctrl_site595]	10.1 ± 0.17
TAATATTATATTTATAGTACATATAATATATATATA [XGTACX_site2964]	10.8 ± 0.67
TGTTATATAATTTAGCGTACAGGTTATAGGACGGAT [XGTACX_site8823]	11.5 ± 0.95
AACTATTACTTTCTTTCACACATTTTTTTTTTTTTT [CACACA_site5355]	9.935 ± 0.007
ATATATATATATAGTGCACACTTAAGAATATAAAGA [CACACA_site4771]	10.4 ± 0.28
ATATAATGAATTATTAGAAAATAAAATGAATAAAGT [CACACA_negctrl_site690]	10.055 ± 0.007
AACTCTTAGAATGACGGTACAGTATAATAGGTGAAC [XGTACX_site7163]	10.6 ± 0.35
ATCATATAAACATATTGTACTTAAATACATAATATT [XGTACX_site3800]	11.2 ± 0.64
CAAACCCACGGACACACACACACAAAAATGATTAAA [CACACA_site5365]	11 ± 0.75
TTTATTTATTTATGTGGTACTTCAAAAATATATACT [XGTACX_site355]	11.3 ± 0.59
GGATACGCTTTTGTACCACTCCCCCTTTTGGGAATA [CACACA_negctrl_site1363]	11.4 ± 0.97
TTTTTGTAATATTATGATGTCATATATATATATATA [XGTACX_negctrl_site618]	10.1 ± 0.33
ATATTTTGTAACTATACACACATATATATATTATAA [CACACA_site3062]	10 ± 0.15
TCAGATATATAGAATACACACATGGATATAAGAAAT [CACACA_site7831]	10 ± 0.028
ATAGATCCTAATGTTGTGCACATGTAAATTAATATA	10.6 ± 0.28
